Some of the results follow. The energies were worked out here from pooled read counts, against the library average; single values are noisy.
target: T1, Pho4 (S. cerevisiae) (UniProt P07270); experiment: relative binding free energy (BET-seq); higher = weaker binding; settings: reference: library average
T1 sequence: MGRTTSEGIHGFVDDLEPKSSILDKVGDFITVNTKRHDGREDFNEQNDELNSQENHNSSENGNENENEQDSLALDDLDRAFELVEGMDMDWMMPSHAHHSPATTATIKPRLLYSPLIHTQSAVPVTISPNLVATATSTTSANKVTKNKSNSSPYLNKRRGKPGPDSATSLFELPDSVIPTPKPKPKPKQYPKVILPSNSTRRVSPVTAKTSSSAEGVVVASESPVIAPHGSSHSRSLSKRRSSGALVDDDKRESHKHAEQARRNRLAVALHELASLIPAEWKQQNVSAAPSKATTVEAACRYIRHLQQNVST

| Sequence | relative binding free energy [kcal/mol] |
| --- | --- |
| AGAGTCACGTGGACGT | 0.05 |
| GCATTCACGTGGGGGG | 0.16 |
| TCTGTCACGTGTTTGA | -0.02 |
| ATGTACACGTGTGTAA | -0.01 |
| GGGTACACGTGAATAG | 0.34 |
| TTGTGCACGTGTACGG | 0.06 |
| GGGTACACGTGTAGAG | 0.16 |
| GGGCTCACGTGATATT | 0.38 |
| CGTCGCACGTGAGTAG | 0.45 |
| TTAATCACGTGTTTAG | 0.05 |
| CTAATCACGTGTGGGG | 0.17 |
| GTGGGCACGTGCAAGG | -0.1 |
| GGCGTCACGTGTCGTA | 0.24 |
| TTATTCACGTGTTGCG | 0.34 |
| ATGCGCACGTGAGCGG | 0.03 |
| GTCGGCACGTGCGTTG | -0.04 |
| GAGTGCACGTGTGGTG | 0.06 |
| AGTCTCACGTGGGTGA | 0.12 |
| CGGAGCACGTGGTATG | -0.18 |
| CGGGACACGTGTTGAT | 0.1 |
| AAGGCCACGTGCGGGG | -0.2 |
| GGGGTCACGTGTGGGC | 0.29 |
| ATTGTCACGTGATAGG | 0.29 |
| TGACCCACGTGGGGGG | -0.3 |
| TGTATCACGTGGGCGA | -0.01 |

| Sequence | relative binding free energy [kcal/mol] |
| --- | --- |
| CTCTACACGTGAGGTG | 0.41 |
| TGATGCACGTGATAAT | 0 |
| GTGCACACGTGTGGCT | 0.22 |
| TTATGCACGTGTTAAA | -0.05 |
| TTGAACACGTGGTAGT | -0.03 |
| GGGAACACGTGCAGGG | 0.01 |
| GCTGGCACGTGGTTGA | -0.16 |
| CCAGGCACGTGTGGGA | -0.09 |
| TATGTCACGTGGGCCT | -0.12 |
| TTTAACACGTGGTGAT | -0.03 |
| TTTGTCACGTGGCAAT | 0.03 |
| TCTGGCACGTGACTGT | -0.09 |
| GGAGGCACGTGGAGAC | 0.01 |
| GTTTGCACGTGCTGAG | -0.19 |
| AAGGGCACGTGGTGAG | -0.18 |
| GGAAACACGTGTGGAT | 0.12 |
| TTGTGCACGTGAATAG | 0.22 |
| GTTTGCACGTGGAATT | 0.12 |
| AGGGGCACGTGGAGGA | -0.08 |
| TTGCTCACGTGTTGGG | 0.18 |
| ACTGGCACGTGCTGTT | -0.12 |
| ATTTCCACGTGGTTAG | 0.02 |
| AATGGCACGTGTTCAT | 0.03 |
| CATGTCACGTGTGGCT | 0.02 |
| AATTTCACGTGGGCTT | 0.24 |

| Sequence | relative binding free energy [kcal/mol] |
| --- | --- |
| GGGTGCACGTGGTACT | -0.02 |
| TGATACACGTGGGGAG | 0 |
| TTCGACACGTGTCGTG | 0.03 |
| GTCAACACGTGTGGTT | 0.09 |
| CAAGTCACGTGGTTGA | 0.18 |
| GATTGCACGTGAAGTT | 0.35 |
| TGTATCACGTGTGTGA | 0.12 |
| TTGGGCACGTGGGCGC | -0.15 |
| GGTGGCACGTGAAGGC | 0.22 |
| TTTAGCACGTGGCCGT | -0.24 |
| CGGTTCACGTGTTAGC | 0.23 |
| GTGCGCACGTGTGGAT | -0.01 |
| GATTACACGTGGGAAG | 0.17 |
| ATGTGCACGTGGTGCC | -0.22 |
| AATTACACGTGTTGTC | 0.2 |
| ATTATCACGTGAATTA | 0.24 |
| GAGGTCACGTGTTGAT | 0.24 |
| TAATTCACGTGGGGTG | 0.05 |
| CTTCGCACGTGGGGAG | -0.18 |
| AGGTTCACGTGATGTG | 0.3 |
| CGTTGCACGTGGTTTT | -0.02 |
| TTTTTCACGTGTATAA | 0.18 |
| AAATTCACGTGGGTTT | 0.02 |
| GAAGACACGTGTTTGT | -0.05 |
| ATATGCACGTGTGTCG | -0.1 |

| Sequence | relative binding free energy [kcal/mol] |
| --- | --- |
| GTTCGCACGTGGCAGT | 0.05 |
| AGGGACACGTGGAAGT | 0.1 |
| GGGGTCACGTGAGTAA | 0.3 |
| GGATGCACGTGTGAAT | 0.21 |
| GGTTTCACGTGCTTCG | 0.44 |
| AGAGTCACGTGTGGAA | 0.25 |
| GTTACCACGTGGGGTT | -0.23 |
| GAAAGCACGTGGGCGT | -0.08 |
| TGTCGCACGTGGAGCG | 0 |
| GGCCACACGTGTGGGT | 0.03 |
| AGGAGCACGTGGGCGG | -0.25 |
| TTGTACACGTGGCATG | -0.09 |
| CGCTGCACGTGGATGG | 0.09 |
| GGGTTCACGTGAATAT | 0.45 |
| CTGTTCACGTGTGTGT | 0.17 |
| GGTCTCACGTGGGTCG | 0.19 |
| GTCAACACGTGGGTAG | -0.06 |
| GGGCGCACGTGTTGAG | 0.06 |
| GATCTCACGTGATGTT | 0.4 |
| ATTGTCACGTGATCTG | 0.12 |
| AAAAGCACGTGTGAGG | -0.07 |
| CCTGGCACGTGAAGGT | 0.13 |
| GCTTACACGTGGGGTA | -0.12 |
| AGGGCCACGTGGGGCA | -0.3 |
| TATTGCACGTGGATTG | 0.06 |

| Sequence | relative binding free energy [kcal/mol] |
| --- | --- |
| TATCGCACGTGGATGG | -0.04 |
| TGTATCACGTGGAGTT | 0.24 |
| TGGGCCACGTGGAGGA | -0.11 |
| GTCGGCACGTGGTTTG | -0.14 |
| GTATACACGTGATCTT | 0.31 |
| TTATTCACGTGGATCT | 0.21 |
| CGTTACACGTGAGGTA | 0.24 |
| GATGGCACGTGCGTGT | -0.08 |
| CTTTACACGTGGTTAT | 0.06 |
| GCTTTCACGTGGTGGA | 0.23 |
| GTGGGCACGTGTTAAT | 0.05 |
| GGAGCCACGTGCGTGG | -0.08 |
| TTATTCACGTGCGGTA | 0.27 |
| TATATCACGTGGAAAG | 0.32 |
| ACGGTCACGTGAATTT | 0.37 |
| TGTGTCACGTGGGGGT | -0.03 |
| ATGTACACGTGCTGGA | 0.11 |
| TAATGCACGTGGGGAT | -0.23 |
| TTGTACACGTGGTTAA | 0.05 |
| ATGGGCACGTGCAGTT | -0.12 |
| GTATACACGTGCGTTA | -0.05 |
| TCTTGCACGTGTTCTG | 0.04 |
| TGGGTCACGTGGGGCC | 0.11 |
| GTGTGCACGTGGGTTT | -0.02 |
| TTCGTCACGTGAGAGG | 0.26 |

| Sequence | relative binding free energy [kcal/mol] |
| --- | --- |
| GTGTGCACGTGCAGTA | -0.09 |
| TGCTGCACGTGTCTTT | -0.07 |
| CACGTCACGTGTGTGG | 0.09 |
| TGAGGCACGTGGAAAG | 0.09 |
| AGTATCACGTGGGTGA | -0.07 |
| GGAGACACGTGGGGTA | -0.1 |
| ACGGGCACGTGTTTCG | -0.05 |
| AGGTCCACGTGGTATT | -0.01 |
| TTTAACACGTGGGGTG | -0.22 |
| GGATTCACGTGGAGGA | 0.19 |
| GGGCGCACGTGGGCCG | -0.14 |
| TTAACCACGTGTGTGA | 0.03 |
| TTGTGCACGTGTTGAC | -0.01 |
| ATGTTCACGTGGAGAG | 0.28 |
| GCTTGCACGTGTTGTA | 0.08 |
| CGCGGCACGTGGTGAT | -0.12 |
| GACAGCACGTGTAGGG | -0.02 |
| AGTGTCACGTGAGCTG | 0.29 |
| ATAGGCACGTGGCATT | -0.28 |
| TTAGCCACGTGGTATT | -0.19 |
| ATGGTCACGTGTTCGT | 0.11 |
